Test results published in PubChem BioAssay AID686978 (National Center for Advancing Translational Sciences (NCATS), 2013).
Screen size: about 420,000 compounds; about 64,000 (15%) were called active. The inconclusive results got no clear call from the source; some entries with a clear call stand among them for comparison. The call rests on the fitted dose curve; in most records, active means well fitted inhibition curve with a large enough effect; inconclusive means small, poorly fitted or top-dose-only effect; inactive means flat fitted curve, though single readings scatter. Potencies of inconclusive entries are left out as doubtful fits.

Assay: qHTS for Inhibitors of human tyrosyl-DNA phosphodiesterase 1 (TDP1): qHTS in cells in absence of CPT; further: nearly all actives have a fitted effect of over 55% in size
Conditions: DT40 Tdp1-/- hTDP1 cells, no CPT, ATP luminescence, 48 h; activity change, negative = growth inhibition: at 46.2 µM (top of the series) unless noted
Method in brief: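 Luminescent ATP content (CellTiter-Glo) served as the growth readout. Knockout chicken DT40 cells expressing human TDP1 were exposed to compounds without camptothecin for a minimum 48 hr at 37 °C.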
On the % scale 0 is the no-effect control and ±100 the full control effect; potency means the concentration at half of the fitted maximal effect; tags describe the fitted curve by direction and shape.

Compound | Potency | activity change, negative = growth inhibition
CC(C)(C)OC(=O)N[C@H](C(=O)OC(C)(C)C)c1ccc2c(c1)OCO2 | inconclusive [inhibitor, partial curve, poor fit] | 
COc1ccc(NC(=O)C2CCCN2c2nn3c(=O)cc(C)nc3s2)cc1 (centres undefined) |  | inconclusive: -0.2% [inhibitor]
NC(=S)Nc1ccc(Oc2ccc(NC(N)=S)cc2)cc1 | inactive | 
CC1CCN(c2ncnc3nc[nH]c23)CC1 |  | inconclusive: -32.8% [inhibitor]
Cc1ccc2c(c1)nnn2C1CCN(S(=O)(=O)c2ccc(C(=O)N3C(C)CCCC3C)cc2)CC1 (centres undefined) | active: 9.2 µM | 
C[C@H](CO)N1C[C@H](C)[C@@H](CN(C)S(=O)(=O)c2ccccc2F)OCc2cnnn2CCCC1=O | inactive | 
O=C(c1cc(-c2cccs2)on1)N1CCN(C(c2ccccc2)c2ccccc2)CC1 | inconclusive [inhibitor, single point] | 
Cc1ccc(S/C(=N/S(=O)(=O)c2ccc(Cl)cc2)c2ccccc2)cc1 | active: 10 µM | 
COc1ccc(NC(=O)CCS(=O)(=O)c2ccccc2Cl)cc1S(=O)(=O)Nc1ccc(Cl)cc1 | active: 16.4 µM | 
Cc1cccc([C@@H]2[C@@H]3C(=O)N(Cc4ccccc4)C(=O)[C@@H]3[C@]3(Cc4ccccc4)C(=O)N(c4ccc(C(F)(F)F)cc4)C(=O)N23)c1 | active: 16.4 µM | 
CC(=O)NC(Cc1ccccc1F)C(=O)NC1CCN(C(=O)NCc2ccccc2)CC1 (centres undefined) | inactive | 
O=C(CN1C(=O)NC2(CCCCC2)C1=O)Nc1cc(C(F)(F)F)ccc1N1CCCCC1 | inconclusive [inhibitor, single point] | 
CCc1ccc(NC(=O)C(C)OC(=O)CN2C(=O)NC3(CCCC3)C2=O)cc1 (centres undefined) | inconclusive [inhibitor, single point] | 
Cc1ccc(-c2cc(Cc3ccccc3)c(=O)[nH]n2)cc1 | inconclusive [inhibitor, single point] | 
O=C(c1ccc(Br)cc1)N(C1=NCCCCS1)c1ccccc1 | inconclusive [inhibitor, single point] | 
Cc1ccc(-c2cc(C(F)F)n3ncc(C(=O)N4CCN(c5cccc(C)c5C)CC4)c3n2)cc1 | active: 18.4 µM | 
COc1ccc(-c2cc(=O)oc3cc(OCc4nn[nH]n4)ccc23)cc1 | inactive | 
Cc1ccc(S(=O)(=O)N(CC(=O)NCCC2=CCCCC2)Cc2ccccc2)cc1 | inconclusive [inhibitor, single point] | 
CC(=O)N(/N=C/c1ccc([N+](=O)[O-])o1)c1nc2ccccc2c(=O)n1-c1ccccc1 | inconclusive [inhibitor, partial curve] | 
